# Measurements taken from the supplement of paper PMC3334620.
# In all, about 33,000 sequences were measured (“E-score (-0.5 to 0.5)”: median about -0.012, highest 2% from about 0.29 on). Some of the results follow.
# Target: T1, Ybr033w (UniProt P38073)
# T1 sequence: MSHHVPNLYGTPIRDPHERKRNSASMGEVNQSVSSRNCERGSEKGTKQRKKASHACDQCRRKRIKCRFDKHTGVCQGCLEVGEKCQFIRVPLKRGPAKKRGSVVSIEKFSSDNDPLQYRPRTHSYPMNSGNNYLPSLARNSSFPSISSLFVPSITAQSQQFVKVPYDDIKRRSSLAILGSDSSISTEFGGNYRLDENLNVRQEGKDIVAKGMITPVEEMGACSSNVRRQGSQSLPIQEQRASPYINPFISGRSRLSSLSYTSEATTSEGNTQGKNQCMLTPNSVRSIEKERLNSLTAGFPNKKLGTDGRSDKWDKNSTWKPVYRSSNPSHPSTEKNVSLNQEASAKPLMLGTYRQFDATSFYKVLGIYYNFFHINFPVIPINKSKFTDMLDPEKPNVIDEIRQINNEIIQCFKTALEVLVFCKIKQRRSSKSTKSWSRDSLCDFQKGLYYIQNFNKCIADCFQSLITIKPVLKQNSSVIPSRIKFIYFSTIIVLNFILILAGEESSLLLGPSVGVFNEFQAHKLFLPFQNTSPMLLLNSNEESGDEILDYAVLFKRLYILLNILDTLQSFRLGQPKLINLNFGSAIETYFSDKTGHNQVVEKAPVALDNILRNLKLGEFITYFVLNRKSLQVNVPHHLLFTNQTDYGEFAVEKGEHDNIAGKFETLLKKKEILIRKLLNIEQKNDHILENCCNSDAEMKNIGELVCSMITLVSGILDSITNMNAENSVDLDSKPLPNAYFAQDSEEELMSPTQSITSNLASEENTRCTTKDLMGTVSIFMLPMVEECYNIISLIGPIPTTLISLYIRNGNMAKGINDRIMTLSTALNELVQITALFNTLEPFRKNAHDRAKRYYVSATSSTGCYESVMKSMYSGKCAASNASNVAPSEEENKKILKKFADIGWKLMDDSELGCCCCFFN
# Experiment: PBM E-score (8-mer binding enrichment) (E-score (-0.5 to 0.5)); higher = stronger / more preferred TF binding; most listed sequences are background and not binding sites
# Conditions: protein concentration: 200 nM; construct: GST-full length
# Method in brief: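 Full-length yeast transcription factors or their DNA-binding domains, GST-tagged and expressed with PURExpress, were applied at about 100-200 nM to universal all-10-mer Agilent arrays. These arrays had been made double-stranded by primer extension on fresh or once-stripped slides. Detection used fluorescent anti-GST, normalisation used masliner, and E-scores for ungapped eight-base words pooled with reverse complements came from the Universal PBM Analysis Suite.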
row,Sequence,PBM E-score
1,TCGGGAGA,-0.105
2,AATCTTCT,0.132
3,AGAATCCG,-0.00623
4,CGACTAGC,-0.073
5,ATGCCCCA,-0.221
6,AGACACGG,-0.0835
7,CTGTCTTA,0.0957
8,CAAGGAGG,-0.0252
9,CCGACCGA,-0.253
10,GAGCCGCA,0.0957
11,CTACCCCC,-0.352
12,CGAATTGC,-0.0195
13,AGGTACCG,-0.0115
14,GGACTATA,0.0631
15,GAATCTGC,0.00807
16,TCGCGGAA,-0.0635
17,GGACTGCC,-0.216
18,ATTAGCAC,0.144
19,AGTTTACA,0.11
20,ATGTGAAT,0.165
21,AGCTACAG,-0.0615
22,AAATCCAT,0.202
23,CCAAGCGC,-0.0523
24,CCTCCTTC,-0.236
25,AAAGAAGC,-0.0389

row,Sequence,PBM E-score
1,ATACGGAT,0.213
2,ATCCGGCG,-0.0103
3,ACAGCGCA,-0.156
4,GCGAATTA,0.275
5,AGAGAGAC,-0.143
6,GACGTGGA,-0.134
7,AAGTAGCC,-0.2
8,AACATTTC,0.272
9,ACAATTGG,-0.143
10,GAGCTTGC,-0.271
11,CCGACTCC,-0.185
12,GGTAATCA,0.126
13,TAAAAGGA,0.119
14,CTTGCGTC,-0.0534
15,TCGTCAGA,-0.11
16,GGCGAGGA,-0.203
17,GAGTTATA,-0.00286
18,AGGATAGG,-0.153
19,CCCTTTTA,-0.229
20,CGGACTAG,-0.225
21,GCCATACC,-0.173
22,GCGAGAGA,-0.0885
23,ATGTGGTA,0.184
24,CGTTAGAG,-0.0131
25,GAGGACAC,-0.117

row,Sequence,PBM E-score
1,ACCTCCAC,-0.122
2,ACTGATCT,0.0733
3,GCGGCAAC,-0.148
4,ACATGCGA,-0.0958
5,GCTATCCA,-0.0558
6,ATTCTTAA,0.0371
7,CCGGGAAC,-0.0566
8,CAGCACTC,0.0472
9,ATCGGGTC,-0.0512
10,CCACCGGC,-0.211
11,CATCGCCG,-0.0994
12,ACCCCTTC,-0.341
13,GCGACACC,-0.198
14,GATTTTGC,0.14
15,CGTCTTTA,0.201
16,CCCTTGCC,-0.15
17,ACAAACCT,0.222
18,AATTTCAA,0.223
19,GTAAGAAC,0.132
20,CTCGTAAC,0.149
21,TATCACGA,0.0144
22,ATATAAGG,0.232
23,CCATCAGG,-0.25
24,GTAATATA,0.299
25,AACCTTCT,-0.108

row,Sequence,PBM E-score
1,CGGGCACG,-0.172
2,ACTGGGCA,-0.157
3,ACGTCGCA,-0.0609
4,GTATGCTA,0.107
5,CACCACAA,0.0945
6,CCGCTAGG,-0.112
7,GTGTCCCA,-0.239
8,AGGTCGAG,-0.0923
9,GGAGGCAA,-0.138
10,CAGCGAAC,0.0498
11,GCGCAATA,-0.197
12,GGCACATA,0.0402
13,AGAAGGGC,-0.248
14,ATCAGGGG,-0.256
15,ATCGATTC,0.0711
16,GGGCTGAA,0.0197
17,CGTTGCCA,-0.141
18,CACACACG,-0.0904
19,AGAGATAA,0.203
20,AACGCAGA,-0.0443
21,AGTTTTTC,0.295
22,CGTGGACC,-0.272
23,ATCGGCTG,0.0341
24,CTTCCCAC,-0.141
25,GCAACCAA,0.0127

row,Sequence,PBM E-score
1,TCAACGCA,-0.0376
2,GACCCTCC,-0.172
3,ATCGACGG,-0.207
4,AGAACTAA,0.193
5,GGAACACC,-0.0248
6,GACGGTGA,-0.0882
7,CCATTCGA,0.0318
8,CGTAGAGC,-0.198
9,AAGATGTA,0.224
10,CTCCGAGC,0.0566
11,CATAATTA,0.284
12,ACCCTAAT,0.138
13,ACGGGTTC,-0.144
14,GGCTCTAC,-0.185
15,TAAGACAA,0.0666
16,CCGCCGCA,-0.149
17,CGTCCACA,0.0647
18,CCCGGATA,0.125
19,CTCTCATC,-0.169
20,CGGACACC,-0.188
21,TAGTCTGA,-0.0153
22,GTCCGACA,-0.0209
23,GGGCGTTA,-0.108
24,AGCGGAGC,-0.208
25,CATCGGGA,0.0831

row,Sequence,PBM E-score
1,GGCAAATA,0.109
2,ACACCGAC,-0.0121
3,ATGATTTA,0.253
4,GTCCCATA,-0.106
5,CAGGAGGG,-0.185
6,ACCATTCC,0.0986
7,ACGGACAG,-0.284
8,CTTTGTAA,0.24
9,AAAGAACG,0.0663
10,GAGCCGGA,-0.0129
11,AGCAAGGG,-0.0359
12,AACGTACC,0.0653
13,CGTTGGAA,0.0863
14,AGTAACCG,0.109
15,CCTCCCCA,-0.137
16,AACATTGC,0.0435
17,CGTAGGGA,-0.0324
18,AACTCAGC,-0.0812
19,CAATGAAA,0.085
20,GGGATACC,-0.294
21,ATAGTGTA,0.198
22,CACAAGAA,0.236
23,AGTTTTCA,0.123
24,AAGCTTCT,0.0905
25,AGGATGGG,-0.138

row,Sequence,PBM E-score
1,AAGCAAAC,0.117
2,ACGCGAGT,-0.0289
3,AGGTCTAG,-0.173
4,AGATATAG,0.171
5,GGTCGACA,-0.147
6,CATAGCAG,-0.217
7,ACGAGCTC,-0.23
8,GATACCAC,0.066
9,TGTCTGAA,0.133
10,ACAGAGGG,-0.12
11,CCCCAGGC,-0.192
12,ATCAACCG,0.165
13,ATTGTATC,0.251
14,CTCACGGA,-0.115
15,ACACTGCC,0.186
16,ATTGGGAC,0.0397
17,GTGAATAA,0.0956
18,AGACACAA,0.121
19,CGTAAAAA,0.212
20,AGGACCCT,-0.196
21,ATGCTTTG,-0.0128
22,ATAATTAT,0.372
